# The whole screen tested about 190,000 compounds, of which about 270 (0.14%) were called active. Inconclusive means that the source gave no clear call. Such entries were picked first, then a sample of the others.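 Rule for the calls: active = GTP binding activity at least 20% away from the 100% baseline, either lowered as inhibitor or raised as activator; inconclusive = flagged as likely green fluorescent, judged across all proteins in the well; inactive = the rest.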
# Biological target: GTPase HRas (Homo sapiens) (UniProt P01112)
# Sequence of UniProt P01112 (P01112 whole entry, looked up): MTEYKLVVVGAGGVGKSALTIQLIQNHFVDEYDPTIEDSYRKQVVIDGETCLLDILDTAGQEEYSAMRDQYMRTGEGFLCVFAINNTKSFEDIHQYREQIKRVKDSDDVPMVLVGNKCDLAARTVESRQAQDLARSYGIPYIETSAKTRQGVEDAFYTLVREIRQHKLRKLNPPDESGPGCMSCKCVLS
# Experiment: HRas wt fluorescent GTP binding changes, either direction – biochemical, wildtype, bead-based flow cytometry, multiplex, primary screen (AID 759);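 note: 0% = unlabeled GTP competition control and 100% = no-compound control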
# Details: GST-Ras wt beads, Bodipy-FL-GTP binding, at 10 µM, actives lie on both sides
row,Compound,GTP binding activity
1,Cn1nc(C(=O)NCCOc2ccccc2)c2ccccc2c1=O,inactive: 102%
2,CCn1c(CNC(=O)c2ccccc2F)nnc1SCC(=O)NC1CCCCC1C (stereo not given),inactive: 98%
3,CNc1nc(-c2ccc3c(c2)CCN3S(=O)(=O)c2ccccc2)c(C)s1,inactive: 103%
4,COc1ccc(-c2csc(NC(=O)c3ccccc3NS(=O)(=O)c3ccc(F)c(F)c3)n2)cc1,inconclusive: 88%
5,O=C(Nc1ccc(F)cc1)N1CCN(c2ccc3nnc(-c4ccc(F)cc4)n3n2)CC1,inconclusive: 92%
6,O=C(Nc1ccc(Cl)cc1)c1csc(-c2ccncc2)n1,inconclusive: 91%
7,O=C(NC1CCN(C(=S)NCc2ccco2)CC1)c1ccc(F)cc1,inconclusive: 104%
8,COc1cccc(NC(=O)c2ccc(C(=O)c3ccccc3)o2)c1,inactive: 96%
9,O=C(/C=C/c1c(Cl)nc2ccccn12)N1CCCCC1,inconclusive: 156%
10,COc1cc(NC(=O)c2cccs2)c(OC)cc1NC(=O)CCC(=O)Nc1cccc2ncccc12,active: 73%
11,Cc1ccc(OCCSc2ncnc3sc(C)c(C)c23)cc1C,inconclusive: 86%
12,CS(=O)(=O)Nc1ccc(Br)cc1C(=O)c1ccccc1,inactive: 99%
13,CCOc1ccc(C(CC(=O)O)NC(=O)c2sc3ccccc3c2Cl)cc1 (stereo not given),inactive: 96%
14,Cc1cccc(-n2c(Cc3ccccc3)n[nH]c2=S)c1,inconclusive: 92%
15,COCCNC(=O)Cn1cnc2ccc(S(=O)(=O)N3CCC(C)CC3)cc2c1=O,inconclusive: 105%
16,CN1/C(=C/C2CC(=O)N(c3ccc([N+](=O)[O-])cc3)C2=O)C(C)(C)c2ccccc21 (stereo not given),inconclusive: 91%
17,CCOC(=O)N1CCN(CC(=O)Nc2ccc(C)c(Br)c2)CC1,inactive: 96%
18,COc1ccc(-c2nnc(SCC(=O)Nc3nncs3)o2)cc1,inconclusive: 90%
19,COc1ccc2c(c1)CCCC21SC(NC(C)=O)=NN1C(C)=O (stereo not given),inactive: 95%
20,Brc1c(OCCOCCn2cncn2)ccc2ccccc12,inconclusive: 98%
21,CCOc1cc(/C=C/C(=O)OCC(=O)NC2CCS(=O)(=O)C2)ccc1OCc1ccccc1 (stereo not given),inactive: 99%
22,COc1cccc(C(=O)Nc2cccc3c2ccc2cccn23)c1,inconclusive: 91%
23,CCOc1ccccc1N(CC(=O)N1CCCCCC1)S(C)(=O)=O,inconclusive: 103%
24,COc1ccccc1N1CCN(C(=O)CN(c2cc(C)cc(C)c2)S(C)(=O)=O)CC1,inactive: 100%
25,CCc1ccc(C(=O)/C=C/Nc2ccc(S(=O)(=O)Nc3onc(C)c3C)cc2)cc1,inconclusive: 93%

# Reference: PubChem BioAssay AID759 (NMMLSC, 2007)
